Test results from PubChem BioAssay AID463173 (ICCB-Longwood Screening Facility, Harvard Medical School, 2010).
In all, about 52,000 compounds went through this assay and about 1,700 (3.3%) were called active. No stated cut-off is given here; in the data, active means survival mostly below about 52% (no sharp cut-off); inactive means mostly above about 56%. The list shows a part of the results.

tested on: Wild type; assay: growth inhibition of S. aureus wild type versus tarO mutant, primary screen, teichoic acid synthesis inhibitors, RN4220, OD600 (AID 463173); conditions: S. aureus RN4220 wild type/DeltatarO growth, OD600, 18 h, hits give low values, screened at 18.75 µg/mL (by protocol)

Compound | survival
Cc1cccc(N2CCN(C(=O)CN3C(=O)COc4ccc(S(=O)(=O)N5CCCCCC5)cc43)CC2)c1C | inactive: 88%
CN(C)C(=O)N(C)C1CCS(=O)(=O)C1 (centres undefined) | inactive: 110%
CSc1ncc(C(=O)N2CCN(c3cc(C)ccc3C)CC2)c(C)n1 | inactive: 68%
CCn1c(=N)c(C(=O)NCc2ccccc2)cc2c(=O)n3cc(C)ccc3nc21 | inactive: 74%
CCCNS(=O)(=O)c1ccc(-n2cnnn2)c(OC)c1 | inactive: 102%
CCCCNC(=O)C(Cc1ccccc1)NS(=O)(=O)c1ccc2c(c1)c(=O)n(C)c(=O)n2C (centres undefined) | inactive: 90%
Cc1oc(-c2ccc(C(=O)NCc3ccc(Cl)cc3)cc2)nc1CS(=O)(=O)c1ccccc1 | inactive: 72%
CC(C)c1ccc(N2C(=O)CS(=O)(=O)C23C(=O)N(Cc2cccc(F)c2)c2ccccc23)cc1 (centres undefined) | inactive: 66%
CCOc1ccc(-c2ncnn2-c2sc3c(c2C#N)CCCCC3)cc1 | active: 3%
CCC1CN(C(=O)NCc2ccc(C)cc2)c2ccccc2O1 (centres undefined) | inactive: 106%
CC(C)(C)n1nnnc1C(c1ccc2ncccc2c1)N1CCOCC1 (centres undefined) | inactive: 110%
Cc1ccc(C)c(NC(=O)c2cc(S(=O)(=O)N3CCCc4ccccc43)ccc2F)c1 | inactive: 84%
Cc1cc(C)c(OCC(=O)N(Cc2ccco2)Cc2ccco2)c(C)c1 | inactive: 84%
CCOC(=O)c1ccc(NS(=O)(=O)c2ccc(-c3cc(C)no3)cc2)cc1 | inactive: 81%
Cc1nc2ccc(S(=O)(=O)N3CCCCC3)cc2s1 | inactive: 113%
CSc1ncc(C(=O)Nc2c(C)cccc2C)c(-c2ccccc2)n1 | inactive: 80%
Cc1ccc(S(=O)(=O)C2(C(=O)O)CC2)cc1C | inactive: 107%
Cc1nc2ccccc2c(=O)n1-c1ccc(NC(=O)c2cccc([N+](=O)[O-])c2)cc1 | inactive: 59%
COc1ccccc1CCNC(=O)c1ccc(-c2nc(CSc3ccc(C)cc3)c(C)o2)cc1 | inactive: 81%
Oc1ccc2ccccc2c1CN1CCOCC1 | inactive: 99%

Compound | survival
COc1ccc(Cn2ccc3nc(C)c(C(=O)Nc4cc(C)cc(C)c4)cc3c2=O)cc1 | inactive: 99%
CCCC(O)c1nc2ccccc2n1Cc1ccccc1OC (centres undefined) | inactive: 108%
Cc1nc2ccccc2n1C(=O)CCC(=O)O | inactive: 103%
COc1cc(NC(=O)CN2c3ccccc3S(=O)(=O)c3ccccc32)cc(OC)c1 | inactive: 73%
CCN(CC)S(=O)(=O)Cc1ccccc1 | inactive: 103%
C=CCn1cc(F)c(=O)n(CC=C)c1=O | inactive: 109%
CCC1CN(C(=O)N2CCC(C(=O)NCCc3ccccc3Cl)CC2)c2cc(C)ccc2O1 (centres undefined) | inactive: 94%
Cc1ccc(Nc2nnc(-c3ccc(C)c(S(=O)(=O)N4CCN(C)CC4)c3)c3ccccc23)cc1 | inactive: 76%
CCOc1c(C)cc(-c2ncccc2O)cc1C | inactive: 121%
CC1CCN(c2ncccc2C(=O)NC2CCCCC2)CC1 | inactive: 125%
CCOCCCn1c(SCC(=O)OCC)nc2c(sc3ccccc32)c1=O | inactive: 136%
COCCNC(=O)CSc1nc(-c2cc(OC)c(OC)c(OC)c2)[nH]c1-c1ccc(Cl)cc1 | inactive: 88%
Cc1ccc(C(=O)CSc2nc(-c3ccccc3)nc3c2CCCC3)c(C)c1 | inactive: 58%
Cc1ccc(S(=O)(=O)N(CCO)Cc2cc3cc(C)c(C)cc3[nH]c2=O)cc1 | inactive: 107%
Cc1cccc(C(C)C)c1NC(=O)C1CCCN1S(=O)(=O)c1cccc2nsnc12 (centres undefined) | inactive: 76%
CCc1ccc(C(=O)CC2(O)C(=O)N(C(C)C)c3ccccc32)cc1 (centres undefined) | inactive: 111%
Cc1oc2c(c1C(=O)NCc1cc(C(=O)O)co1)CCCC2 | inactive: 116%
O=S(=O)(CCN1CCOCC1)c1ccc(Oc2ccc(S(=O)(=O)CCN3CCOCC3)cc2)cc1 | inactive: 110%
CNC(=O)C1CCC(Cn2c(=O)c3sccc3n(CC(=O)Nc3ccc(C)c(C)c3)c2=O)CC1 (centres undefined) | inactive: 82%
O=C(Cc1ccc(F)cc1)Nc1nncs1 | inactive: 110%

Compound | survival
O=S(=O)(c1ccccc1)c1nnn2c1nc(NC1CCCCC1)c1sccc12 | inactive: 94%
CCCCn1cc(S(=O)(=O)c2ccc(OC)cc2)c(=O)c2cc(CC)ccc21 | inactive: 79%
Cc1ccc(Cl)cc1NC(=O)Nc1nnc(N(C)Cc2ccccc2)s1 | inactive: 93%
Cn1c(=O)c2c(SCC(=O)Nc3ccccc3C(F)(F)F)nc(C3CCCC3)nc2n(C)c1=O | inactive: 72%
CCc1ccc(NC(=O)CN(c2ccc(C)cc2)S(=O)(=O)c2cccs2)cc1 | inactive: 76%
COc1ccc(-c2cc(C)no2)cc1S(=O)(=O)N1CCc2ccccc21 | inactive: 76%
O=C(O)CCCCn1c(SCC(=O)Nc2ccccc2C(F)(F)F)nc2ccsc2c1=O | inactive: 73%
Cc1ccc(CN(C(=O)c2ccccc2)c2ccccn2)o1 | inactive: 104%
CC(=O)N1CCc2nc3sc(C(=O)c4ccc(F)cc4)c(N)c3c(C(F)(F)F)c2C1 | inactive: 69%
Cc1ccc(C(=O)Nc2ccc(S(=O)(=O)N3CCC(c4nc5ccccc5s4)CC3)cc2)cc1 | inactive: 93%
Cc1ccc(OCC(=O)Nc2nnc(S(=O)(=O)N3c4ccccc4CC3C)s2)cc1 (centres undefined) | inactive: 48%
Cc1ccc(NC(=O)c2nc(S(C)(=O)=O)ncc2N(Cc2ccco2)Cc2cccs2)c(C)c1 | inactive: 77%
Cc1ccc(NC(=O)CSc2nc(=O)n(CCN3CCOCC3)c3c2CCC3)c(C)c1 | inactive: 72%
CC(=O)c1cccc(NC(=O)c2nc(-c3ccccc3)n(-c3cccc(Cl)c3)n2)c1 | inactive: 72%
CCc1ccc(NC(=O)C(=O)NCC(c2cccnc2)N2CCN(c3ccc(F)cc3)CC2)cc1 (centres undefined) | inactive: 103%
N=C(N=C(N)N)N1CCCc2ccccc21 | inactive: 89%
Cc1nnc(N2CCC(C(=O)N3CCCCC3)CC2)c2nn(-c3ccc(Cl)cc3)c(C)c12 | inactive: 74%
Cc1ccc(OCCCCn2nnc3sc4c(c3c2=O)CCCC4)cc1 | inactive: 91%
NC(=O)CSc1nnc(-c2ccco2)n1Cc1ccco1 | inactive: 91%
